Results published in PMC546208.
Substitutions are numbered along the chain they refer to. Results are given in words; binding and its absence hold for the method and conditions named. Some entries that bind do so weakly or less than the wild type. For some of these results: Sequences can lack the tags named with a protein. Each block holds one molecule with its values, some of them ahead of it.

By UniProt entry, the sequences of proteins in these tests, tags left out. Residues count along the entry.
UniProt Q96RT1, residues 1321-1410: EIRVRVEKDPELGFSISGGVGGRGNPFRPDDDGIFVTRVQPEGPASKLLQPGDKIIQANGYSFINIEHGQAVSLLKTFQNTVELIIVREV
UniProt Q14160, residues 669-1233: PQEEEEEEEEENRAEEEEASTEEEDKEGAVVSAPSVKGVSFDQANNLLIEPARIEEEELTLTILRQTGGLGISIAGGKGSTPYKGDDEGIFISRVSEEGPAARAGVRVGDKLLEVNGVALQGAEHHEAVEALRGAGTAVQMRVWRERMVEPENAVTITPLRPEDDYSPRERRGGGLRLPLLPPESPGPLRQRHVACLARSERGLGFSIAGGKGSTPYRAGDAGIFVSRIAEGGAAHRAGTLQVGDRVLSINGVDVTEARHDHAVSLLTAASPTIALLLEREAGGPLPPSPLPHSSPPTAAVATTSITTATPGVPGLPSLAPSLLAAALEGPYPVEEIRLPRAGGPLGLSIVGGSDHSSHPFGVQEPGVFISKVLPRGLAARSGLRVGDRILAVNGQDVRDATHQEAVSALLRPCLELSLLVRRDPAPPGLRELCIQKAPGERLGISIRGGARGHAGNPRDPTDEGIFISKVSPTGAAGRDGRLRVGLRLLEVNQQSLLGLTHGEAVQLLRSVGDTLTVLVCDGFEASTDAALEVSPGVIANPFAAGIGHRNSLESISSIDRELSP
UniProt O14936, residues 489-564: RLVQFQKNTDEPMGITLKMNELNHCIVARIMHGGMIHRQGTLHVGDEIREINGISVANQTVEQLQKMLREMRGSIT
UniProt Q9NRD5, residues 22-105: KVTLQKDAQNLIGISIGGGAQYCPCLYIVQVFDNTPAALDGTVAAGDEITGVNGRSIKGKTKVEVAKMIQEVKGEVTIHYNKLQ

What was measured:
[1] = biological target: T1, pGBT9-LPPWT: third LIM domain and carboxy-terminus of human LPP (amino acids 531–612) (human) (UniProt Q93052); assay: two-hybrid; yeast, pGBT9-LPPWT with pACT2 preys of PDZ domains; growth on medium lacking Leu and Trp, with His or without His with 5 mM 3-AT
T1 sequence: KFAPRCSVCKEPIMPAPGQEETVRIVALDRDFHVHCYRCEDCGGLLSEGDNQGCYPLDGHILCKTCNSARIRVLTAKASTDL

[2] = biological target: T2, pM-LPP_(dNEST610A) (human) (UniProt Q93052); assay: two-hybrid; mammalian two-hybrid in HEK293 cells; pM baits, pSNATCH prey, GAL4-regulated luciferase reporter, CMV-β-galactosidase internal control; lysates assayed 18-24 hours after transfection
T2 sequence: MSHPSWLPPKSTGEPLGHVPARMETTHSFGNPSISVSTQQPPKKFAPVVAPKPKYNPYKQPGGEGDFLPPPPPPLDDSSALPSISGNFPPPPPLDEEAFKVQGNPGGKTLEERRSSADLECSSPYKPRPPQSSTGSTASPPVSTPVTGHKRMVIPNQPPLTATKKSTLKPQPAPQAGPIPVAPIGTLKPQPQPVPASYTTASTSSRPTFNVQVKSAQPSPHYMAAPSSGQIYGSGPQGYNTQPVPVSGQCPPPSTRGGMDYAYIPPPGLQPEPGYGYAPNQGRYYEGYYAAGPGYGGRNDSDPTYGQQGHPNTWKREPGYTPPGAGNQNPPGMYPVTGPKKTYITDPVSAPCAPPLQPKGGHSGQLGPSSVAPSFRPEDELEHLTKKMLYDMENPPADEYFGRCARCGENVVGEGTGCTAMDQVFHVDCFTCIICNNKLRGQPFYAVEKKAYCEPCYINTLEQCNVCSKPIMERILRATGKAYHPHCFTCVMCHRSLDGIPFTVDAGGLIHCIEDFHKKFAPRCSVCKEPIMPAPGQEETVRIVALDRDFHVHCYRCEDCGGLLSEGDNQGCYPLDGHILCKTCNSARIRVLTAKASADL

[3] = biological target: T3, pM-LPP_(dNESL612A) (human) (UniProt Q93052); assay: as above
T3 sequence: T2 sequence with A598T, L600A

[4] = biological target: T4, pM-LPP_(dNESWT): GAL4-fused full length human LPP with a deletion of the NES (human) (UniProt Q93052); assay: as above
T4 sequence: T2 sequence with A598T

Molecule: Erbin-PDZ (pACT2-Erbin) (from UniProt Q96RT1 1321-1410) (domain or fragment)
binding [1]: no binding

Molecule: pSNATCH-hScribPDZ: part of the human Scrib protein (amino acids 669–1233) encompassing all four PDZ-domains (from UniProt Q14160 669-1233) (domain or fragment)
binding [2]: no binding
binding [3]: no binding
binding [4]: binds

B1: AF6-PDZ (pACT2-AF6) (domain or fragment, UniProt P55196 1007-1093)
chain: IITVTLKKQNGMGLSIVAAKGAGQDKLGIYVKSVVKGGAADVDGRLAAGDQLLSVDGRSLVGLSQERAAELMTRTSSVVTLEVAKQG
binding [1]: no binding

Further lines, results first:

binding [1]: no binding
Molecule: CASK-PDZ (pACT2-CASK) (from UniProt O14936 489-564) (domain or fragment)

binding [1]: no binding
Molecule: PICK1-PDZ (pACT2-PICK1) (from UniProt Q9NRD5 22-105) (domain or fragment)
